# Measured values: the supplement of paper PMC11417369
# Some of the results follow.
# System: PF3D7_0420300 AP2 domain 1 (GST-tagged)
# Assay: gcPBM binding intensity (ln(normalized median fluorescence intensity)); higher = stronger DNA binding
# Summary of the method: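 Binding intensity values are the highest Masliner-normalised natural-log median intensity among replicate spots of either probe orientation. The binding step lasted 1 h in 1× PBS with 1% milk, 0.2 mg/ml BSA, 0.5% salmon testes DNA and 0.03% Triton X-100, using GST-tagged P. falciparum DNA-binding domains expressed in E. coli on an Agilent 4 × 180k array of primer-extended double-stranded 36-bp intergenic genomic probes plus negative controls. Alexa488 anti-GST antibody and a 488 nm scan detected bound protein.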
row,Sequence,gcPBM binding intensity (ln)
1,TAACACCAAACTAAATGTACACACATACATAAATAT [XGTACX_site2201],9.76
2,TCTTATATGATATTTATTTATTTATTTATTTATTCA [GTGCAC_negctrl_site686],9.23
3,TAAATGTGAACAATAGAAGTAATAAGAAGAATAAAA [CACACA_negctrl_site1080],9.38
4,AATGAATAATTATTTTGTACATAATATTATATTTAT [XGTACX_site5350],9.19
5,TTTATTTTTTGTGGCACACAGAAGAAACAAGAACAA [CACACA_site1696],9.45
6,AATAGTAATTTGAATACACACAATAATATATTTATA [CACACA_site7055],9.48
7,TCTGTATATTATTCAAGTACACAATATAAATATAAA [XGTACX_site7241],9.09
8,TATTGTTTTTTTTACTGTACACAAGTAAATGAAAAA [XGTACX_site790],8.73
9,AAAAAATTCAAAAGGTGTACAACATTATATTATTCC [XGTACX_site5118],9.42
10,GTATATAATTAAAGTTGTACCCTTAAAAAAGGGAAA [XGTACX_site7278],8.86
11,AAAAATAAAAAAATAAATACGTATACATATATAATA [TGCATGCA_negctrl_site551],9.41
12,GAACAAATTAAATAGGTGCATTAACATGTTCTATTT [GTGCAC_site9729],9.29
13,GATAACTTTTTTCTCACACACAAATATTTTAATCAT [CACACA_site7685],9.8
14,TATAATTATATGTATACACACACATACATTTACATA [CACACA_site9061],9.87
15,AAAATGAAAATGAAAATGAAAATGGGAAAATGTCAA [TGCATGCA_negctrl_site488],9.48
16,TAAATAAAAAAGAATACACACAGCATGCATAAATAT [CACACA_site237],9.92
17,TTATATATAAGTTTATTCATTTTTTTTTTTTTTTTT [XGTACX_negctrl_site573],8.92
18,CATATATATCGTAATGCACACATGTAATTTCATAAT [CACACA_site811],9.43
19,TATCATATATAAAGAGGTACGTAAGAATAGAAAATT [XGTACX_site798],9.76

row,Sequence,gcPBM binding intensity (ln)
1,TAAATACATAAATACACACACATATATTATATATAT [CACACA_site4310],9.89
2,ATATTAACTATCATAACACACACAGTAGACATATTT [CACACA_site6941],9.89
3,TTCTTAAAAGGAAAGGTGCAACTTTATCATTTTCTT,8.98
4,TTTTTCATTTCTGCATTTATTTATAAATAAATATTT [CACACA_negctrl_site368],9.29
5,ATATATATTATATAAGTGCATAATATTCTTTCTTTT,9.23
6,TATATATTTTGTGTCTGTACACATATTATTAATTCC [XGTACX_site7507],9.26
7,TTTTTTTATCAATGTTGTACTTTTTTTTTTTTCCAT [XGTACX_site8864],9.39
8,TACACGCATGGACACACACACACACCCATATATATA [CACACA_site4522],10.2
9,TATAAGAGAATATATACACACAAAAATATATACAGT [CACACA_site1668],9.89
10,TTCAAATATAAATACACACACATAGCTACAAAATAA [CACACA_site4172],10
11,AAATTATTAAGTGATATAATATTCTATAGATGGGGA [CACACA_negctrl_site168],9.3
12,TATATGATATAATATACACACATACAGATATATATA [CACACA_site4440],9.55
13,AGAGGTAGAGAGAAAACATGCATAATGATTTTCATA [TGCATGCA_site958],9.15
14,TAGAGGTATAAAATATGTACTTATAAAAACATGAAT [XGTACX_site8916],9.31
15,TTTTCCAATTTAAAAGCATGCATCTGTTTTTTTTTT [TGCATGCA_site482],9.12
16,ACATATAAATAAATAAATATATATATATATATATAT [GTGCAC_negctrl_site378],9.13
17,TATTTACACCTAATCACAAATAAAATAAAATCAAAT [CACACA_negctrl_site531],9.33
18,TAAATCAAAATAATTTAACACACAATTTTAATACTG [CACACA_site8744],9.37
19,GATAAGGTATTCAAATGTACAAAATGTTTTATATAA [XGTACX_site6863],9.19

row,Sequence,gcPBM binding intensity (ln)
1,TATGAAATTTTAATTACACACAGGAAAATAAAATGG [CACACA_site4935],9.57
2,TAAAAAAAATATTTTTGTACGAATTAAATTTTTTTT [XGTACX_site4838],8.79
3,ACATATTTTTAATACACACTCAAAAAAGTACTTAAC [CACACA_site3014],9.47
4,AAAAAAAGTAAATGTTGTACTATAATATGTAATATA [XGTACX_site7966],9.28
5,TACATATATATTATATGTACTTATATTTTTATAATA [XGTACX_site3452],9.13
6,ATATACATATCCATATTTATATCTATATTTAAAACA [CACACA_negctrl_site747],9.22
7,AACCACATACATATAACACACATATACAATCTATAT [CACACA_site1987],9.85
8,AAATAACACTAATGATGTACTCAACTATTTATAATT [XGTACX_site8183],9.47
9,TTGACACGTATATGCACACACCCGTAAGTGTCCATT [CACACA_site2764],9.56
10,ATATTTTATTATTGTTGTACTTTTTTTTGATTGTTT [XGTACX_site4090],9.61
11,TTTTTTATGAACACGTCACACATCATTAAAATGTTT [CACACA_site5934],9.2
12,TCACACATATATTCATGTACATATTAATATTTCCAT [XGTACX_site5387],9.47
13,TTTAATATTTTTCAATGTAGAAAGTTTGTCTGTTAT [CACACA_negctrl_site973],9.09
14,AGTTATAAACATATGTGTACTTATAAAAACATATAG [XGTACX_site3268],9.37
15,TTGATGATATAAAAAAGTACTTATATTATATTATAT [XGTACX_site6492],9.07
16,TTTTGTAAAAAAAAAAAAAAAGGAAAATTAAAATAA [CACACA_negctrl_site803],8.85
17,TTTCCTATTTAATATAGTACATAAGAAATAATTTTA [XGTACX_site5952],8.72
18,CTTGTATTTAAACACACACACACTTTCTTTTTTTAA [CACACA_site5133],9.84
